{
  "source": "PubChem BioAssay AID602310",
  "about": "(National Center for Advancing Translational Sciences (NCATS), 2012)",
  "note": "About 310 (0.076%) of roughly 410,000 compounds were called active. The shares of active, inactive and inconclusive entries below differ from those in the screen. The call rests on the fitted dose curve; in most records, active means well fitted curve in the direction sought with a large enough effect; inconclusive means small, poorly fitted or top-dose-only effect; inactive means flat fitted curve, though single readings scatter. Where the call is inconclusive, the potency comes from a doubtful curve fit.",
  "data": [
    {"biological_target": "DNA dC->dU-editing enzyme APOBEC-3G (Homo sapiens) (UniProt Q9HC16)", "sequence (Q9HC16 whole entry, looked up)": "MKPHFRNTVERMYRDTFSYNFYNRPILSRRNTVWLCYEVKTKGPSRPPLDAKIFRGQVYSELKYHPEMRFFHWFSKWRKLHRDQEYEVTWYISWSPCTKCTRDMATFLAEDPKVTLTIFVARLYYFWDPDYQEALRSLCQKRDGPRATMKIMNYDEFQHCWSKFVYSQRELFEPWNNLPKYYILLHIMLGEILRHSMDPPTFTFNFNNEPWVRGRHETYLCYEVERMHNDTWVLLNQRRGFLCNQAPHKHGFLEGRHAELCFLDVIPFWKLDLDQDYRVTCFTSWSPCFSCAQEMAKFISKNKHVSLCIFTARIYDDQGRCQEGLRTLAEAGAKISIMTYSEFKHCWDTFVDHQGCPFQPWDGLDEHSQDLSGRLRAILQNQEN", "assay": "qHTS for Inhibitors of Vif-A3G Interactions: qHTS; further: nearly all actives have a fitted effect of over 60% in size; further: potency means the concentration at half of the fitted maximal effect; tags describe the fitted curve by direction and shape;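 on activity, negative = active: on the % scale 0 is the no-effect control and ±100 the full control effect; hits raise eYFP signal because A3G escapes Vif-driven loss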", "details": "HeLa A3G-eYFP + Vif (tagged APOBEC3G with the HIV-1 protein that degrades it), YFP fluorescence, overnight; series mostly up to 46.1 µM; activity, negative = active: at the top concentration", "how_it_was_run": "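HeLa cells stably expressing Vif and C-terminally eYFP-tagged A3G, seeded overnight at 37 deg C, then exposed to compound by pintool overnight at 37 deg C. Rise in yellow fluorescence (Ex 488/Em 500-530, Acumen) marks blocked Vif-driven A3G degradation.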", "values": [
      {"compound": "CC1(C)C(=O)N(c2ccccc2)C1c1ccccc1O", "note": "(centres undefined)", "Potency": "inconclusive: 17.8 µM [inhibitor, single point]"},
      {"compound": "CCC(c1ccc(O)cc1)C(CC)c1ccc(O)cc1", "note": "(centres undefined)", "activity, negative = active": "inactive: -23.8%"},
      {"compound": "O=c1[nH]c(=O)n(C2OC(CO)C(O)C2O)cc1F", "note": "(centres undefined)", "Potency": "inconclusive: 2 µM [inhibitor, full curve, poor fit]"},
      {"compound": "CCOc1ccc(S(=O)(=O)Nc2cccc(Cl)c2)cc1", "Potency": "inconclusive: 10 µM [inhibitor, partial curve, poor fit]"},
      {"compound": "COc1ccc(C(=O)N2C(=S)NC(=O)/C2=C\\c2ccc(C)cc2)cc1", "Potency": "inconclusive: 22.4 µM [inhibitor, single point]"},
      {"compound": "Cc1ccc(Cl)cc1NC(=O)Nc1cn(CC(C)C)c(=O)c2ccccc12", "Potency": "inconclusive: 1.12 µM [inhibitor, full curve, poor fit]"},
      {"compound": "COc1cc(/C=N/Nc2ccc(Cl)nn2)cc(OC)c1O", "Potency": "inconclusive: 14.1 µM [inhibitor, partial curve, poor fit]"},
      {"compound": "Cc1noc(/C=C/N(C)C)c1S(=O)(=O)N(C)Cc1ccc(F)cc1", "activity, negative = active": "inactive: 2.54%"},
      {"compound": "Cc1cc(N2CCN(C(=O)c3[nH]c(C(F)(F)F)nc3-c3ccccc3)CC2)c2ccccc2n1", "Potency": "inconclusive: 2.82 µM [inhibitor, full curve, poor fit]"},
      {"compound": "CCOC(=O)c1nn(-c2ccc(OCC)cc2)c2nc(-c3ccco3)c(C#N)c(=O)n12", "Potency": "inconclusive: 20 µM [inhibitor, single point]"},
      {"compound": "COc1ccc(N)cc1-n1c(C)ccc1C", "Potency": "inconclusive: 31.6 µM [inhibitor, single point]"},
      {"compound": "COC(=O)Cn1c(CN2CCOCC2)nc2c1c(=O)n(C)c(=O)n2C", "activity, negative = active": "inactive: 5.16%"},
      {"compound": "CCC(O)(CC)C(=O)N/N=C/c1cc(Br)cc(Br)c1O", "activity, negative = active": "inactive: -0.0175%"},
      {"compound": "CC(=O)c1cccc(-c2ccnc3c2CC(C(=O)NCc2cccs2)O3)c1", "note": "(centres undefined)", "Potency": "inconclusive: 1 µM [inhibitor, full curve]"},
      {"compound": "COc1ccccc1-c1cc(NC(C)=O)c2ncc(-c3cccc(C(C)=O)c3)n2c1", "Potency": "inconclusive: 20 µM [inhibitor, single point]"},
      {"compound": "COc1ccc2nc(NC(=O)c3cccc(OCc4c(C)noc4C)c3)sc2c1", "Potency": "inconclusive: 0.891 µM [inhibitor, full curve, poor fit]"},
      {"compound": "NNC(=O)c1cc2sccc2s1", "Potency": "inconclusive: 3.55 µM [inhibitor, full curve]"},
      {"compound": "COc1ccc(C(=O)Nc2cc3c4c(c2)CC(=O)N4CCC3)c(OC)c1", "activity, negative = active": "inactive: -2.93%"},
      {"compound": "COc1cc(-c2nc(=S)[nH][nH]2)cc(OC)c1OC", "activity, negative = active": "inactive: 0.408%"},
      {"compound": "CCOc1ccc(NC(=O)CCN2CCN(c3ccccc3F)CC2)cc1", "Potency": "inconclusive: 35.5 µM [inhibitor, single point]"},
      {"compound": "COc1ccc(Cl)cc1NC(=O)CN(C)C(=O)c1cn2ccccc2n1", "Potency": "inconclusive: 25.1 µM [inhibitor, single point]"},
      {"compound": "CN(C)c1ccc2c(c1)OC(N)=C(C#N)C2c1cccc(F)c1", "note": "(centres undefined)", "Potency": "inconclusive: 8.91 µM [inhibitor, partial curve, poor fit]"},
      {"compound": "CCCC(=O)NC(c1ccc(OC)cc1)c1c(O)ccc2ccccc12", "note": "(centres undefined)", "Potency": "inconclusive: 11.2 µM [inhibitor, partial curve, poor fit]"},
      {"compound": "COc1ccc(CNC(=O)CSc2ncc3c(n2)-c2cc(Cl)ccc2N(Cc2ccccc2)S3(=O)=O)cc1", "activity, negative = active": "inactive: 0.916%"},
      {"compound": "COC(=O)C1=C(CCc2ccccc2)NC(=O)NC1c1ccc(C#N)cc1", "note": "(centres undefined)", "activity, negative = active": "inactive: 3.39%"},
      {"compound": "CCS(=O)(=O)c1c([N+](=O)[O-])ncn1C", "Potency": "inconclusive: 35.5 µM [inhibitor, single point]"},
      {"compound": "COc1ccc(NC(=O)c2sc3nc4c(cc3c2N)CCCCCC4)cc1", "Potency": "inconclusive: 20 µM [inhibitor, single point]"},
      {"compound": "N#CC(C(=O)NCCc1ccccc1)c1nc2ccccc2nc1N1CCOCC1", "note": "(centres undefined)", "Potency": "inconclusive: 35.5 µM [inhibitor, partial curve, poor fit]"},
      {"compound": "C[C@]12CCC[C@H](O1)c1c(cc3c(c1O)C(=O)c1c(O)cc(O)cc1C3=O)O2", "Potency": "active: 5.62 µM"},
      {"compound": "COc1cc2[nH]c3c(=O)n4c(nc3c2cc1OC)SCCC4", "Potency": "inconclusive: 35.5 µM [inhibitor, single point]"},
      {"compound": "COc1cc(-c2cnc3c(NC=O)cc(-c4cccnc4)cn23)cc(OC)c1OC", "Potency": "inconclusive: 2 µM [inhibitor, full curve, poor fit]"},
      {"compound": "COc1cccc(-c2cnc3c(NC=O)cc(-c4ccccc4)cn23)c1", "Potency": "inconclusive: 1.26 µM [inhibitor, partial curve, poor fit]"},
      {"compound": "O=C(CCN1C(=O)/C(=C/c2cccs2)SC1=S)Nc1ccc(O)cc1", "Potency": "inconclusive: 35.5 µM [inhibitor, single point]"},
      {"compound": "Cc1nc(Cl)c2oc3ccccc3c2n1", "Potency": "inconclusive: 35.5 µM [inhibitor, single point]"},
      {"compound": "O=C1NC(c2ccc3c(c2)OCO3)Nc2ccccc21", "note": "(centres undefined)", "Potency": "inconclusive: 10 µM [inhibitor, partial curve]"},
      {"compound": "CCOc1ccc(C(=O)COC(=O)c2c(-c3ccccc3)noc2C)cc1", "Potency": "inconclusive: 7.08 µM [inhibitor, partial curve]"},
      {"compound": "CC(C)(C)C(=O)NC(=S)NNC(=O)c1ccc(-c2ccccc2)cc1", "activity, negative = active": "inactive: -2.73%"},
      {"compound": "CN1c2cccc3cccc(c23)N(C)C1(C)C", "activity, negative = active": "inactive: 0.742%"},
      {"compound": "CCOC(=O)CCS(=O)(=O)c1ccc(-c2ccc(S(=O)(=O)CCC(=O)OCC)cc2)cc1", "activity, negative = active": "inactive: -6.76%"},
      {"compound": "COc1cc(/C=C2\\C(=O)ON=C2c2ccccc2)cc(Br)c1O", "Potency": "inconclusive: 35.5 µM [inhibitor, single point]"},
      {"compound": "O=C1/C(=C\\c2ccncc2)CCc2ccccc21", "Potency": "inconclusive: 35.5 µM [inhibitor, single point]"},
      {"compound": "Cc1oc(=O)c(NC(=O)c2cccc(Cl)c2)cc1C(=O)c1ccccc1", "Potency": "inconclusive: 20 µM [inhibitor, partial curve, poor fit]"},
      {"compound": "COc1ccc(NC(=O)c2sc(Cl)nc2-c2ccccc2)cc1", "Potency": "inconclusive: 31.6 µM [inhibitor, single point]"},
      {"compound": "COCCNC(=O)/C(C#N)=C/c1ccc(N2CCOCC2)o1", "activity, negative = active": "inactive: -11.9%"}
    ]}
  ]
}
